Structures can show the parent of a compound that is named as a salt. Where two headings read alike, the source gives them in different places.
What was measured:
[1] = biological target: human dopamine type 3 receptor (CHO-hD3 membranes) (Homo sapiens (Human), UniProt P35462)
[2] = biological target: human dopamine receptor type 2, long variant (hD2L), CHO-Gα16-hD2L cells (Homo sapiens (Human), UniProt P14416)
[3] = displacement of 0.3 nM [3H]-Spiperone
[4] = functional pKi, FLIPR Ca2+, antagonism of dopamine EC80

UniProt P14416, sequence (P14416 whole entry): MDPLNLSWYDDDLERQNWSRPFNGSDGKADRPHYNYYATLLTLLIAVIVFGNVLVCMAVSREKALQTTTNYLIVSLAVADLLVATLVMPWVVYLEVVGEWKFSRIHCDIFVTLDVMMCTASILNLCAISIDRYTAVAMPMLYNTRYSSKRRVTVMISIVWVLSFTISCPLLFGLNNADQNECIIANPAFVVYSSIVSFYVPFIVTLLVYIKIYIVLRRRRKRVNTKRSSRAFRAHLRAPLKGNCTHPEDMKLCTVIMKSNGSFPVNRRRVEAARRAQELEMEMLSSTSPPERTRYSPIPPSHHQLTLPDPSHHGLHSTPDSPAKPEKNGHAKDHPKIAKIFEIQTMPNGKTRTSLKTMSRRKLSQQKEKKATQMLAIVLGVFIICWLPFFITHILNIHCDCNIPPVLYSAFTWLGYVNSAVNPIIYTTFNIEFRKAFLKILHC
UniProt P35462, sequence (P35462 whole entry): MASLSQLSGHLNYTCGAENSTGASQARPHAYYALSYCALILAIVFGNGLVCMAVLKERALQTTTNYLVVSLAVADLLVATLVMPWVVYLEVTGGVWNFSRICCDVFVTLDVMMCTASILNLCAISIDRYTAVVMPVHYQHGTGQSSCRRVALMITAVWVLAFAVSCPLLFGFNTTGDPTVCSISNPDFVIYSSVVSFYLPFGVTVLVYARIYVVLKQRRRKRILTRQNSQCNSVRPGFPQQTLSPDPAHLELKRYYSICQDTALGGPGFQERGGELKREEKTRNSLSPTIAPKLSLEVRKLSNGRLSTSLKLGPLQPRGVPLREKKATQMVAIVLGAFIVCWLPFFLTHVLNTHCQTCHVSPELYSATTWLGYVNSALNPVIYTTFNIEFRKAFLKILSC

With Cn1c(SCCCN2CC3CCN(c4ccc(C(F)(F)F)cc4)C3C2)nc2ccccc21 (stereo not shown) [Example 80, 1-methyl-2-[(3-{1-[4-(trifluoromethyl)phenyl]-octahydropyrrolo[3,4-b]pyrrol-5-yl}propyl)sulfanyl]-1H-1,3-benzodiazole] the “D3 pKi” value [1, 3] was 8.35 and the “D2 fpKi” value [2, 4] was 6.7.
Cc1ncoc1-c1nnc(SCCCN2CC3CCN(c4cccc(C#N)c4)C3C2)n1C (stereo not shown) [Example 7, 3-[5-(3-{[4-methyl-5-(4-methyl-1,3-oxazol-5-yl)-4H-1,2,4-triazol-3-yl]sulfanyl}propyl)-octahydropyrrolo[2,3-c]pyrrol-1-yl]benzonitrile] was tested, and the “D3 pKi” value [1, 3] was 8.85 and the “D2 fpKi” value [2, 4] was 8.24.
Cc1ncoc1-c1nnc(SCCCN2CC3OCCN(c4ccc(C(F)(F)F)cc4)C3C2)n1C (stereo not shown) [Example 236, 4-methyl-3-(4-methyl-1,3-oxazol-5-yl)-5-[(3-{4-[4-(trifluoromethyl)-phenyl]-octahydropyrrolo[3,4-b]morpholin-6-yl}propyl)sulfanyl]-4H-1,2,4-triazole] was tested, and the “D3 pKi” value [1, 3] was 7.45 and the “D2 fpKi” value [2, 4] was 6.01.
With Cc1ncoc1-c1nnc(SCCCN2C[C@@H]3CCN(c4cccc(C#N)c4)[C@@H]3C2)n1C.Cl.Cl [Example 10, 3-[(3aS,6aS or 3aR,6aR)-5-(3-{[4-methyl-5-(4-methyl-1,3-oxazol-5-yl)-4H-1,2,4-triazol-3-yl]sulfanyl}propyl)-octahydropyrrolo[2,3-c]pyrrol-1-yl]benzonitrile dihydrochloride] the “D3 pKi” value [1, 3] was 9.19 and the “D2 fpKi” value [2, 4] was 8.66.
In the case of Cc1ncoc1-c1nnc(SCCCN2C[C@H]3OCCN(c4ccc(C(F)(F)F)cc4)[C@H]3C2)n1C [Example 238, 3-({3-[(4aS,7aR or 4aR,7aS)-4-[4-(trifluoromethyl)phenyl]-octahydropyrrolo[3,4-b]morpholin-6-yl]propyl}sulfanyl)-4-methyl-5-(4-methyl-1,3-oxazol-5-yl)-4H-1,2,4-triazole], the “D3 pKi” value [1, 3] is reported as 7.77 and the “D2 fpKi” value [2, 4] is reported as 6.37.
Cn1c(SCCCN2CC3CCN(c4ccc(OC(F)(F)F)cc4)C3C2)nnc1-c1cnccn1 (stereo not shown) [Example 97, 2-{4-methyl-5-[(3-{1-[4-(trifluoromethoxy)phenyl]-octahydropyrrolo[3,4-b]pyrrol-5-yl}propyl)sulfanyl]-4H-1,2,4-triazol-3-yl}pyrazine] was tested, and the “D3 pKi” value [1, 3] was 7.95 and the “D2 fpKi” value [2, 4] was 6.72.
In the case of Cc1ncoc1-c1nnc(SCCCN2CC3CCN(c4ccc(C(F)(F)F)cc4F)C3C2)n1C (stereo not shown) [Example 17, 3-[(3-{1-[2-fluoro-4-(trifluoromethyl)phenyl]-octahydropyrrolo[2,3-c]pyrrol-5-yl}propyl)sulfanyl]-4-methyl-5-(4-methyl-1,3-oxazol-5-yl)-4H-1,2,4-triazole], the “D3 pKi” value [1, 3] is reported as 8.69 and the “D2 fpKi” value [2, 4] is reported as 7.04.
For Cc1ncoc1-c1nnc(SCCCN2CC[C@@H]3CCN(c4ccc(C(F)(F)F)cc4)[C@@H]3C2)n1C.Cl.Cl [Example 242, 3-({3-[(3aR,7aS or 3aS,7aR)-1-[4-(trifluoromethyl)phenyl]-octahydro-1H-pyrrolo[2,3-c]pyridin-6-yl]propyl}sulfanyl)-4-methyl-5-(4-methyl-1,3-oxazol-5-yl)-4H-1,2,4-triazole dihydrochloride], the “D3 pKi” value [1, 3] was 7.22 and the “D2 fpKi” value [2, 4] was 6.45.
With COCCC(=O)NC1CCC(CCN2C[C@@H]3CCN(c4ccc(C(F)(F)F)cc4)[C@@H]3C2)CC1 (stereo partly drawn) [Example 223, N-(4-{2-[(3aR,6aR or 3aS,6aS)-1-[4-(trifluoromethyl)phenyl]-octahydropyrrolo[3,4-b]pyrrol-5-yl]ethyl}cyclohexyl)-3-methoxypropanamide] the “D3 pKi” value [1, 3] was 7.23 and the “D2 fpKi” value [2, 4] was 6.11.
With Cl.Cl.Cn1c(SCCCN2C[C@@H]3CCN(c4ccc(C(F)(F)F)cc4)[C@@H]3C2)nnc1N1CCOCC1 [Example 84, 4-[5-({3-[(3aS,6aS or 3aR,6aR)-1-[4-(trifluoromethyl)phenyl]-octahydropyrrolo[3,4-b]pyrrol-5-yl]propyl}sulfanyl)-4-methyl-4H-1,2,4-triazol-3-yl]morpholine dihydrochloride] the “D3 pKi” value [1, 3] was 8.51 and the “D2 fpKi” value [2, 4] was 7.05.
In the case of Cc1ncoc1-c1nnc(SCCCCN2CCC3CCN(c4ccc(C(F)(F)F)cc4)C3C2)n1C (stereo not shown) [Example 240, 4-methyl-3-(4-methyl-1,3-oxazol-5-yl)-5-[(4-{1-[4-(trifluoromethyl)phenyl]-octahydro-1H-pyrrolo[2,3-c]pyridin-6-yl}butyl)sulfanyl]-4H-1,2,4-triazole], the “D3 pKi” value [1, 3] is reported as 7.13 and the “D2 fpKi” value [2, 4] is reported as 6.46.
In the case of Cc1ncoc1-c1nnc(SCCCN2C[C@H]3CCCN(c4ccc(C(F)(F)F)cc4)[C@H]3C2)n1C [Example 233, 3-({3-[(4aR,7aR or 4aS,7aS)-1-[4-(trifluoromethyl)phenyl]-octahydro-1H-pyrrolo[3,4-b]pyridin-6-yl]propyl}sulfanyl)-4-methyl-5-(4-methyl-1,3-oxazol-5-yl)-4H-1,2,4-triazole], the “D3 pKi” value [1, 3] is reported as 8.24 and the “D2 fpKi” value [2, 4] is reported as 7.01.
In the case of Cn1c(SCCCN2CC3CCN(c4ccccc4C#N)C3C2)nnc1-c1cnccn1 (stereo not shown) [Example 110, 2-[5-(3-{[4-methyl-5-(pyrazin-2-yl)-4H-1,2,4-triazol-3-yl]sulfanyl}propyl)-octahydropyrrolo[3,4-b]pyrrol-1-yl]benzonitrile], the “D3 pKi” value [1, 3] is reported as 8.15 and the “D2 fpKi” value [2, 4] is reported as 6.62.
COCCC(=O)NC1CCC(CCN2C[C@@H]3CCN(c4ccc(C(F)(F)F)cc4)[C@@H]3C2)CC1 (stereo partly drawn) [Example 222, N-(4-{2[(3aS,6aS or 3aR,6aR) 1-[4-(trifluoromethyl)phenyl]-octahydropyrrolo[3,4-b]pyrrol-5-yl]ethyl}cyclohexyl)-3 methoxypropanamide] was tested, and the “D3 pKi” value [1, 3] was 7.06 and the “D2 fpKi” value [2, 4] was 6.22.
Cl.Cl.Cn1c(SCCCN2C[C@H]3CCN(c4ccc(C(F)(F)F)cc4)[C@H]3C2)nnc1N1CCOCC1 [Example 85, 4-[5-({3-[(3aR,6aR or 3aS,6aS)-1-[4-(trifluoromethyl)phenyl]-octahydropyrrolo[3,4-b]pyrrol-5-yl]propyl}sulfanyl)-4-methyl-4H-1,2,4-triazol-3-yl]morpholine dihydrochloride] was tested, and the “D3 pKi” value [1, 3] was 8.70 and the “D2 fpKi” value [2, 4] was 6.77.
For Cc1ncoc1-c1nnc(SCCCN2CC3CCCN(c4cccc(C#N)c4)C3C2)n1C.Cl.Cl (stereo not shown) [Example 235, 3-[6-(3-{[4-methyl-5-(4-methyl-1,3-oxazol-5-yl)-4H-1,2,4-triazol-3-yl]sulfanyl}propyl)-octahydro-1H-pyrrolo[3,4-b]pyridin-1-yl]benzonitrile dihydrochloride], the “D3 pKi” value [1, 3] was 7.95 and the “D2 fpKi” value [2, 4] was 6.16.
In the case of Cn1c(SCCCN2C[C@H]3CCN(c4cccnc4)[C@H]3C2)nnc1C1CCOCC1 [Example 48, 3-[(3aR,6aR or 3aS,6aS)-5-(3-{[4-methyl-5-(oxan-4-yl)-4H-1,2,4-triazol-3-yl]sulfanyl}propyl)-octahydropyrrolo[2,3-c]-pyrrol-1-yl]pyridine], the “D3 pKi” value [1] is reported as 7.29 and the “D2 fpKi” value [2] is reported as 5.79.
With Cc1ncoc1-c1nnc(SCCCN2CC3CCN(c4cccc(F)c4)C3C2)n1C (stereo not shown) [Example 30, 3-({3-[1-(3-fluorophenyl)-octahydropyrrolo[3,4-b]pyrrol-5-yl]propyl}sulfanyl)-4-methyl-5-(4-methyl-1,3-oxazol-5-yl)-4H-1,2,4-triazole] the “D3 pKi” value [1, 3] was 8.53 and the “D2 fpKi” value [2, 4] was 7.20.
Compound Cn1c(SCCCN2C[C@@H]3CCN(c4ccc(C(F)(F)F)cc4)[C@@H]3C2)nnc1[C@H]1COCCO1 (single isomer, unassigned) [Example 78, 3-({3-[(3aR,6aR or 3aS,6aS)-1-[4-(trifluoromethyl)phenyl]-octahydropyrrolo[3,4-b]pyrrol-5-yl]propyl}sulfanyl)-5-[(2R or 2S)-1,4-dioxan-2-yl]-4-methyl-4H-1,2,4-triazole dihydrochloride] has a Ki [2] of 0.468 µM.
Cn1c(SCCCN2C[C@H]3CCN(c4ccc(F)cc4F)[C@H]3C2)nnc1-c1cnccn1 (single isomer, unassigned) [Example 106, 2-[5-({3-[(3aR,6aR or 3aS,6aS)-1-(2,4-difluorophenyl)-octahydropyrrolo[2,3-c]pyrrol-5-yl]propyl}sulfanyl)-4-methyl-4H-1,2,4-triazol-3-yl]pyrazine dihydrochloride] showed a Ki [2] of 0.295 µM.
With Cn1c(CCCCN2C[C@@H]3CCN(c4ccc(C(F)(F)F)cc4)[C@@H]3C2)nnc1C1CCOCC1 (single isomer, unassigned) [Example 216, 3-{4-[(3aS,6aS or 3aR,6aR)-1-[4-(trifluoromethyl)phenyl]-octahydropyrrolo[3,4-b]pyrrol-5-yl]butyl}-4-methyl-5-(oxan-4-yl)-4H-1,2,4-triazole dihydrochloride] the Ki [2] was > 10 µM.
With Cn1c(SCCCN2CC3CCN(c4ccc(C(F)(F)F)cc4)C3C2)nnc1-c1cncnc1 (stereo not shown) [Example 88, 5-{4-methyl-5-[(3-{1-[4-(trifluoromethyl)phenyl]-octahydropyrrolo[2,3-c]pyrrol-5-yl}propyl)sulfanyl]-4H-1,2,4-triazol-3-yl}pyrimidine] the “D3 pKi” value [1, 3] was 7.33 and the “D2 fpKi” value [2, 4] was 5.98.
For Cn1c(SCCCN2CC3CCN(c4ccc(C(F)(F)F)cc4)C3C2)nnc1-c1cccnn1 (stereo not shown) [Example 87, 3-{4-methyl-5-[(3-{1-[4-(trifluoromethyl)phenyl]-octahydropyrrolo[3,4-b]pyrrol-5-yl}propyl)sulfanyl]-4H-1,2,4-triazol-3-yl}pyridazine], the “D3 pKi” value [1, 3] was 7.29 and the “D2 fpKi” value [2, 4] was 6.24.

— patent US10273244B2, “Substituted hexahydropyrrolo[3,4-b]pyrroles and hexahydrocyclopenta[c]pyrroles as dopamine receptor modulators” (INDIVIOR UK LIMITED, priority 2015, dated 2019)
